Assay results: PubChem BioAssay (NCATS)
Values joined by “and” are separate entries in the source; they are usually repeats but may differ in a detail not shown here. Identical values can stand only once. This is one part of the list. Shown are side measurements of this screen, not its main read-out; they come without a call. Most of these compounds were active or inconclusive in the main read-out, so they are no random draw. For some of these results: The note in brackets gives the kind of curve behind each potency; many fits are weak.

Tests used:
[1] = qHTS Assay for Lipid Storage Modulators (AID 1519); conditions: Drosophila S3 cells, BODIPY lipid droplet/cell ratio, laser cytometry, cells loaded with oleic acid
In short: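 Cells seeded at 5,000 per well were treated with compounds over a concentration series and loaded with oleic acid (400 uM, as added). Lipid droplet fluorescence (488 nm excitation, 500-530 nm channel) was read by laser-scanning cytometry and normalized to 20 uM Triacsin C.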

[2] = S16 Schwann cell PMP22 intronic element beta-lactamase assay (AID 624044); conditions: S16 rat Schwann cells, PMP22 element beta-lactamase FRET, 24 h; note: nearly all actives have a fitted effect of over 15% in size
In short: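 Beta-lactamase reporter under a PMP22 intronic regulatory element in stable S16 rat Schwann cells; 24 h compound exposure. 460 nm blue signal normalized between DMSO (0%) and potassium clavulanate, with 535 nm FRET tracking viability; curves classed by r2 and response.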

[3] = qHTS Assay for Modulators of Human Peripheral Myelin Protein 22 (PMP22) Expression/Activity (AID 1967); conditions: Cell-based PMP22 reporter, dual-color luciferase ratio
In short: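 MSC80 mouse Schwann cells stably carrying Pmp22 promoter–green click beetle luciferase plus EF-alpha–red luciferase control were dosed for 24h at 37 °C. Dual-colour luminescence was filter-overlap corrected; %Activity came from green/red ratio versus untreated cells.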

[4] = Nrf2 qHTS screen for inhibitors: Validation (AID 493153); conditions: A549 ARE-Fluc reporter, 18-24 h; AC50: CellTiter-Fluor fluorescence read, measured here: cytotoxicity CellTiter-Fluor AC50; viability change: measured here: cytotoxicity max response
In short: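 In this counterscreened reporter format, each well gives two signals: CellTiter-Fluor fluorescence for cytotoxicity and ARE-luciferase luminescence for Nrf2 function. A549 ARE_Fluc cells in 5% FBS OPTI-MEM were exposed to compound titrations for 18-24 h.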

[5] = A High-Content qHTS Against Drug Library for the Identification of Small Molecules that Inhibit DYT1 Early Onset Primary Dystonia-Associated Cell Pathology (AID 1645839); conditions: HEK293 Flp-In EGFP-delE TorsinA, punctate imaging, 48 h; measured here: cell count cytotoxicity
In short: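 High-content imaging quantified EGFP-TorsinA mislocalization in HEK293-derived cells inducibly expressing DYT1 mutant torsinA, after 48 h exposure to compound given together with tetracycline induction. Cell count served as a toxicity channel alongside %pathology.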

[6] = qHTS assay for small molecule antagonists of androgen receptor signaling (AID 588516); conditions: AR-UAS-bla HEK293, beta-lactamase ratio, antagonist mode, 16 h; measured here: W460 blue channel fit
In short: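 Cells were plated and incubated 5 h, compounds added in titration, then R1881 (10 nM final) as agonist. After 16 h at 37 C, CCF4 substrate was loaded for 2 h at room temperature and fluorescence measured.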

[7] = qHTS assay for small molecule antagonists of vitamin D receptor signaling (AID 588541); conditions: HEK293T VDR-UAS-bla, beta-lactamase ratio, antagonist mode; measured here: W460 blue channel (cell viability)
[8] = qHTS assay for small molecule agonists of retinoid X receptor alpha signaling (AID 588544); conditions: HEK293T RXRa-UAS-bla, beta-lactamase reporter, 18 h; 530 nm emission
[9] = qHTS assay for small molecule antagonists of retinoid X receptor alpha signaling (AID 588546); conditions: HEK293T RXRa-UAS-bla, beta-lactamase ratio, antagonist mode; measured here: W530 green channel, cytotoxicity proxy;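 note: cells stimulated with 9-cis-retinoic acid as agonist; % is set by controls: 0 for no effect and ±100 for the full control effect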
In short: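 Beta-lactamase reporter inhibition, read as CCF4 fluorescence ratio (ex 405, em 460/530 nm) after 2 h at RT. HEK293T UAS-bla cells, 2500/well, were stimulated with 9-cis-RA at 500 or 100 nM final alongside test compound for 18 h at 37 C.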

[10] = molecular target: Histamine N-methyltransferase (Homo sapiens) (UniProt P50135); test: Confirmatory Screen for Target Class Profiling of Small Molecule Inhibitors of Methyltransferases (AID 1745852); conditions: MTase-Glo luminescence, SAH detection, recombinant enzyme; measured here: HNMT inhibition potency;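 note: inhibitor potency for blocking SAH production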
[11] = molecular target: Nicotinamide N-methyltransferase (Homo sapiens) (UniProt P40261); test: as above; conditions: MTase-Glo luminescence, SAH detection, recombinant enzyme; measured here: NNMT inhibition potency
[12] = qHTS for identification of novel therapeutic agents for treatment of microphthalmiaassociated transcription factor (MiT) renal cell carcinoma (RCC) (AID 1963991); conditions: CellTiter-Glo, 48 h; for z-score: stronger effect = lower value;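 for z-score: curves scaled with 100% = DMSO viability and 0% = empty wells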
In short: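 UOK109/UOK124/UOK145 (TFE3 fusions, three partners); 500 cells/well; MIPE v4.0, 1912 cpds, 11 conc.; 48 h, 37 C; CellTiter-Glo, 15 min RT; lum. Norm.: DMSO 100%, empty 0%.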

[13] = NCATS anti-infectives library activity on the primary C. elegans qHTS viability assay (AID 1745855); conditions: C. elegans worm area imaging, day 7; measured here: worm number, day 3
In short: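 Titration-based screen in worms: eggs hatched overnight in M9, L1 larvae fed TOP10 capsules in S medium with compound, incubated 21 °C for 7 days; fluorescent objects gated by size and intensity at days 0, 3 and 7.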

[14] = molecular target: Catechol O-methyltransferase (Homo sapiens) (UniProt P21964); test: Confirmatory Screen for Target Class Profiling of Small Molecule Inhibitors of Methyltransferases (AID 1745852); conditions: MTase-Glo luminescence, SAH detection, recombinant enzyme; measured here: COMT inhibition potency;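 note: inhibitor potency for blocking SAH production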
[15] = molecular target: Phenylethanolamine N-methyltransferase (Homo sapiens) (UniProt P11086); test: as above; conditions: MTase-Glo luminescence, SAH detection, recombinant enzyme; measured here: PNMT inhibition potency
[16] = qHTS Assay for Inhibitors of PDE-IV (AID 607); conditions: HEK293 ACTOne CNG channel cells, membrane potential fluorescence; measured here: parental cell counter-screen;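 note: parental cells stimulated with forskolin 10 µM plus RO 20-1724 100 µM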
In short: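 The readout is membrane depolarisation from a cAMP-sensing CNG channel, detected with a potential dye at ex 535/em 590. Cells were HEK293-derived (endogenous PDE-IV) at 1000 cells/well, titrated up to 22.9 uM final.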

[17] = qHTS assay for small molecule antagonists of glucocorticoid receptor signaling (AID 588533); conditions: HeLa MMTV-bla, GRE beta-lactamase ratio, antagonist mode, 18 h; measured here: W530 channel AC50;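 note: cells stimulated with 2 nM dexamethasone as agonist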
[18] = qHTS assay for small molecule antagonists of peroxisome proliferator-activated receptor delta signaling (AID 588535); conditions: HEK293T PPARd-UAS-bla, beta-lactamase FRET ratio, 18 h; 460 nm channel;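 note: cells co-treated with a PPAR-delta agonist as stimulator during compound exposure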
In short: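 Antagonist-mode qHTS using GeneBLAzer PPAR-delta-UAS-bla HEK293T cells; compound exposure 18 hrs at 37 C over a titration. Ratiometric CCF4 fluorescence at 460/530 nm; concentration-response points fitted to the Hill equation.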

[19] = measured here: cell count channel max response
[20] = measured here: lipid (BODIPY) channel AC50
[21] = measured here: lipid channel max response
[22] = measured here: red reporter channel AC50, EF-alpha promoter control reporter in MSC80 mouse Schwann cells
[23] = measured here: green reporter channel AC50, mouse Pmp22 promoter in mouse Schwann cells
[24] = measured here: cell number channel AC50
[25] = measured here: 460 nm blue channel
[26] = TFE3-RCC UOK109 viability, measured here: UOK109 Z-AUC
[27] = TFE3-RCC viability, measured here: UOK124 Z-AUC
[28] = TFE3-RCC viability, measured here: UOK145 Z-AUC
Tags give direction and shape of the fitted curve.

Chain of UniProt P50135 (P50135 whole entry, looked up): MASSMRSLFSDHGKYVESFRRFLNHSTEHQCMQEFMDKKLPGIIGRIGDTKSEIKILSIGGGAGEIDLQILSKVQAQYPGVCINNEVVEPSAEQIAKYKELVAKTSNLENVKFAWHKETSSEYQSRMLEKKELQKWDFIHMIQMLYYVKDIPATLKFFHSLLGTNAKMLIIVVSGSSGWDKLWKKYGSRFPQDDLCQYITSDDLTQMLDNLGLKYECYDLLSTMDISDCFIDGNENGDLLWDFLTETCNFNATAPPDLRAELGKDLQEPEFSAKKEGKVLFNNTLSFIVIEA
Chain of UniProt P40261 (P40261 whole entry, looked up): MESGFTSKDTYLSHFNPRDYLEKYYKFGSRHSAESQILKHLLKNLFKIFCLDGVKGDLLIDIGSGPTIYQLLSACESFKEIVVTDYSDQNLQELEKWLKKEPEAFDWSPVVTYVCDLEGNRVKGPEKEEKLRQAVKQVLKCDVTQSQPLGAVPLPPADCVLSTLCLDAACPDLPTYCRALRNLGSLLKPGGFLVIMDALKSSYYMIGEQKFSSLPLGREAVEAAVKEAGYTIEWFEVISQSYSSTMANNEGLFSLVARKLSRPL
Chain of UniProt P11086 (P11086 whole entry, looked up): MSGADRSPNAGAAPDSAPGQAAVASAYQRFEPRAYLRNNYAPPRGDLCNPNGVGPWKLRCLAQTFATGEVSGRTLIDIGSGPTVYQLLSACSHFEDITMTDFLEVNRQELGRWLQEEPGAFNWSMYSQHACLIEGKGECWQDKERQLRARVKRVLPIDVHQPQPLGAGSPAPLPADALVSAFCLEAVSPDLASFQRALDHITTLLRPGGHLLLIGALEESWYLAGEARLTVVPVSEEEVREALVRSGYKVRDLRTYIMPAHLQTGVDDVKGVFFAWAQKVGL
Chain of UniProt P21964 (P21964 whole entry, looked up): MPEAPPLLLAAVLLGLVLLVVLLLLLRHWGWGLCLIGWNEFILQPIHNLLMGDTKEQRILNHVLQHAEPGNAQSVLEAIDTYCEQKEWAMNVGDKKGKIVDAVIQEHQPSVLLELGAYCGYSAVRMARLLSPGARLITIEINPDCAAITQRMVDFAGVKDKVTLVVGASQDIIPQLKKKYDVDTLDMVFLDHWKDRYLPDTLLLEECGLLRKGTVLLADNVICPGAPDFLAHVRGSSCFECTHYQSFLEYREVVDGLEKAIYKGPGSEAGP

SMILES: NP(N)(=O)NC(=O)c1ccc(F)cc1
- max response [1, 19]: 4.13%
- AC50 [1, 20]: 14.1 µM [rising, single point]
- max response [1, 21]: 9.99%
- AC50 ([2]; measured here: 530 nm viability channel): 1.58 µM [falling, full curve, poor fit]

SMILES: Cc1cccc(C)c1NC1=NCCCS1
- max response [1, 19]: 28.5%
- AC50 [1, 20]: 39.8 µM [rising, single point]
- max response [1, 21]: 30.3%
- AC50 [3, 22]: 84.9 µM [falling, single point]

SMILES: C[Se]C[C@H](N)C(=O)O
- max response [1, 19]: 24.1%
- AC50 [1, 20]: 2.82 µM [falling, full curve, poor fit]
- max response [1, 21]: 20.9%
- AC50 [3, 23]: 37.9 µM [falling, full curve]
- AC50 [3, 22]: 42.6 µM [falling, full curve]
- viability change [4]: -11.6%

SMILES: CCCN1CCC[C@@H]2Cc3nc(N)ncc3C[C@H]21
- max response [1, 19]: 40.2%
- max response [1, 21]: 28%
- AC50 [5]: 35.5 µM [rising, single point]

SMILES: CC(C)N(C(=O)CCl)c1ccccc1
- max response [1, 19]: 14.3%
- AC50 [1, 20]: 20 µM [falling, single point]
- max response [1, 21]: -58.8%
- AC50 [6]: 50.1 µM [falling, partial curve, poor fit]
- AC50 [7]: 39.8 µM [falling, partial curve, poor fit]
- max response [8]: 60.9%
- max response [9]: 40.8%

SMILES: C[C@]12C=CC(=O)C=C1CCC1C2=CC[C@]2(C)[C@@H](C(=O)CN3CCN(c4cc(N5CCCC5)nc(N5CCCC5)n4)CC3)CC[C@@H]12 (some centres not stated)
- max response [1, 19]: -72.4%
- AC50 [1, 24]: 7.08 µM [falling, full curve, poor fit]
- max response [1, 21]: -77.3%
- AC50 [3, 23]: 75.7 µM [falling, single point]
- AC50 [3, 22]: 84.9 µM [falling, single point]

SMILES: Nc1ccncc1
- max response [1, 19]: 32%
- max response [1, 21]: 30.3%
- AC50 [2, 25]: 25.1 µM [rising, single point]
- IC50 [10]: 24.3 µM [falling, partial curve, poor fit]
- IC50 [11]: 15.3 µM [falling, partial curve]

SMILES: O=c1oc2ccccc2c(O)c1Cc1c(O)c2ccccc2oc1=O
- max response [1, 19]: 22.7%
- AC50 [1, 20]: 22.4 µM [rising, single point]
- max response [1, 21]: 34.8%
- AC50 [2, 25]: 4.25 µM [falling, partial curve, poor fit]

SMILES: COc1ccc(C(CN(C)C)C2(O)CCCCC2)cc1 (configuration not stated)
- max response [1, 19]: 13.1%
- AC50 [1, 20]: 39.8 µM [rising, single point]
- max response [1, 21]: 30.9%
- z-score [12, 26]: 0.176
- z-score [12, 27]: 0.918
- z-score [12, 28]: 0.0325

SMILES: NCCc1ccc(S(=O)(=O)F)cc1
- max response [1, 19]: 74.7%
- max response [1, 21]: 75%
- AC50 [13]: 0.648 µM [falling, partial curve, poor fit]

SMILES: CN(N=O)c1cc(O)ccc1O
- max response [1, 19]: -32.5%
- AC50 [1, 24]: 39.8 µM [falling, single point]
- max response [1, 21]: -34%
- AC50 [3, 22]: 37.9 µM [rising, partial curve]
- IC50 [14]: 3.85 µM [falling, full curve]
- IC50 [10]: 43.2 µM [falling, single point]
- IC50 [11]: 38.5 µM [falling, single point]
- IC50 [15]: 21.7 µM [falling, partial curve]

SMILES: COC(=O)C[C@](O)(CCCC(C)(C)O)C(=O)O[C@@H]1C(OC)=C[C@]23CCCN2CCc2cc4c(cc2[C@H]13)OCO4
- max response [1, 19]: 47.5%
- AC50 [1, 24]: 0.562 µM [rising, full curve, poor fit]
- max response [1, 21]: 2.47%
- AC50 [2, 25]: 0.0999 µM [falling, full curve]

SMILES: CCCCc1ccc(C(=O)O)nc1
- AC50 [16]: 7.94 µM [rising, partial curve]
- max response [1, 19]: 22.9%
- AC50 [1, 20]: 31.6 µM [rising, single point]
- max response [1, 21]: 30.1%
- AC50 [3, 22]: 60.1 µM [falling, partial curve]
- AC50 [4]: 20.6 µM [falling, partial curve, poor fit]
- viability change [4]: -21%
- AC50 [2, 25]: 1.41 µM [falling, full curve, poor fit]

SMILES: Clc1ccc(C(c2ccc(Cl)cc2)C(Cl)(Cl)Cl)cc1
- max response [1, 19]: 25.6%
- AC50 [1, 20]: 6.31 µM [rising, full curve, poor fit]
- max response [1, 21]: 34.9%
- AC50 [17]: 50.1 µM [falling, single point]
- max response [18]: 30%
- max response [8]: -68.5% and 19.4%
- max response [9]: -43.9% and -5.51%

SMILES: O=c1cccc2n1CC1CNC[C@H]2C1
- max response [1, 19]: -28.7%
- AC50 [1, 20]: 7.94 µM [falling, full curve, poor fit]
- max response [1, 21]: -36.3%
- z-score [12, 26]: -0.421
- z-score [12, 27]: 0.0551
- AC50 ([12]; TFE3-RCC viability, measured here: UOK124 cell viability): 2.35 µM [falling, full curve]
- z-score [12, 28]: 0.205
- AC50 ([12]; TFE3-RCC viability, measured here: UOK145 cell viability): 18.7 µM [falling, partial curve]
